The results in this text go back to the supplement of paper PMC4967469.

Lines with a small IC50 respond at low doses; where the fit passes the top or lowest dose, that dose stands as a limit. AUC sums up the same curve from the lowest dose to the 256-fold higher top dose; the more sensitive the line, the further below 1. Any top dose called inferred was calculated from the reported fits.

Compound in this assay: O=C1NC(=O)/C(=C\c2ccc3nccnc3c2)S1 [AS605240]
The assay can be described thus: Viability of human cancer cell lines after 72 h of drug (GDSC screen). The settings on record: top dose inferred. How it is done: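 Human cancer cell lines in 384-well plates, medium with 10% serum, drug for 72 h over a 256-fold dose range (nine 2-fold or five 4-fold steps up to the top dose). Adherent lines were fixed and stained with the nucleic acid dye Syto60, suspension lines read with resazurin; signal relative to control wells, capped at 0 and 100%. One two-parameter sigmoid per drug and line, fitted in a mixed model over all curves with the slope shared within a line.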
Consider “NCI-H2081 (small cell lung carcinoma, suspension, top dose 20 µM)”, for which the AUC stood at 0.927 and the IC50 is more than 20 µM.

For “NCI-H2085 (lung adenocarcinoma, adherent, top dose 20 µM)”, the AUC was 0.696 and the half-inhibitory concentration (IC50) turned out to be 4.69 µM.

Consider “NCI-H2087 (lung adenocarcinoma, semi-adherent, top dose 20 µM)”, for which the AUC came out at 0.982 and the IC50 was more than 20 µM.

With “NCI-H2110 (non-small cell lung carcinoma, adherent, top dose 20 µM)”, the AUC worked out at 0.942 and the IC50 is more than 20 µM.

For “NCI-H2122 (lung adenocarcinoma, adherent, top dose 20 µM)”, the AUC is 0.972 and the IC50 is more than 20 µM.

For “NCI-H2135 (non-small cell lung carcinoma, adherent, top dose 20 µM)”, the AUC was 0.952 and the IC50 is more than 20 µM.

Consider “NCI-H2141 (small cell lung carcinoma, suspension, top dose 20 µM)”, for which the AUC came to 0.784 and the IC50 came out at 8.24 µM.

For the cell line “NCI-H2170 (lung squamous cell carcinoma, adherent, top dose 20 µM)”, the AUC was 0.931 and the IC50 was more than 20 µM.

Take “NCI-H2171 (small cell lung carcinoma, suspension, top dose 20 µM)”: the AUC is 0.917 and the IC50 is more than 20 µM.

For “NCI-H2172 (non-small cell lung carcinoma, adherent, top dose 20 µM)”, the AUC was 0.979 and the IC50 is more than 20 µM.

With “NCI-H2196 (small cell lung carcinoma, adherent, top dose 20 µM)”, the AUC was 0.963 and the IC50 is more than 20 µM.

In the case of “NCI-H2227 (small cell lung carcinoma, semi-adherent, top dose 20 µM)”, the AUC came out at 0.713 and the IC50 came out at 5.46 µM.

For the cell line “NCI-H2228 (lung adenocarcinoma, adherent, top dose 20 µM)”, the AUC is 0.896 and the IC50 was more than 20 µM.

Regarding “NCI-H2291 (lung adenocarcinoma, adherent, top dose 20 µM)”, the AUC was 0.984 and the IC50 was more than 20 µM.

For the cell line “NCI-H2342 (lung adenocarcinoma, adherent, top dose 20 µM)”, the AUC is 0.902 and the IC50 is more than 20 µM.

Consider “NCI-H2347 (lung adenocarcinoma, adherent, top dose 20 µM)”, for which the AUC amounted to 0.766 and the IC50 is 8.9 µM.

As for “NCI-H2405 (lung adenocarcinoma, adherent, top dose 20 µM)”, the AUC worked out at 0.453 and the IC50 was determined as 0.917 µM.

For the cell line “NCI-H2444 (non-small cell lung carcinoma, adherent, top dose 20 µM)”, the AUC was determined as 0.737 and the IC50 was found to be 6.63 µM.

Take “NCI-H2452 (mesothelioma, adherent, top dose 20 µM)”: the AUC was determined as 0.984 and the IC50 is more than 20 µM.

As for “NCI-H3122 (lung adenocarcinoma, adherent, top dose 20 µM)”, the AUC was determined as 0.746 and the IC50 was 6.49 µM.

“NCI-SNU-1 (stomach, suspension, top dose 20 µM)”: the AUC is 0.703 and the IC50 is 4.75 µM.

As for “NCI-SNU-5 (stomach, suspension, top dose 20 µM)”, the AUC came out at 0.921 and the IC50 was more than 20 µM.

“NCI-SNU-16 (stomach, suspension, top dose 20 µM)”: the AUC is 0.991 and the IC50 is more than 20 µM.

In the case of NEC8 (testis, adherent, top dose 20 µM), the AUC was found to be 0.96 and the IC50 was more than 20 µM.

Consider “NH-12 (neuroblastoma, adherent, top dose 20 µM)”, for which the AUC was found to be 0.817 and the IC50 worked out at 12.9 µM.

In the case of “NK-92MI (lymphoid neoplasm, suspension, top dose 20 µM)”, the AUC came to 0.858 and the IC50 was determined as 14.6 µM.

As to “NKM-1 (acute myeloid leukaemia, suspension, top dose 20 µM)”, the AUC was found to be 0.53 and the IC50 is 1.51 µM.

In the case of “NMC-G1 (glioma, adherent, top dose 20 µM)”, the AUC turned out to be 0.835 and the half-maximal inhibitory concentration (IC50) turned out to be 17.7 µM.

On to “NOMO-1 (acute myeloid leukaemia, suspension, top dose 20 µM)”, for which the AUC amounted to 0.534 and the IC50 was 1.57 µM.

As for “NOS-1 (osteosarcoma, adherent, top dose 20 µM)”, the AUC turned out to be 0.39 and the IC50 amounted to 0.581 µM.

Turning to “NTERA-2 cl.D1 (testis, adherent, top dose 20 µM)”, the AUC turned out to be 0.901 and the IC50 is more than 20 µM.

Consider “NU-DUL-1 (B-cell lymphoma, suspension, top dose 20 µM)”, for which the AUC worked out at 0.712 and the IC50 is 4.3 µM.

On to “NUGC-3 (stomach, adherent, top dose 20 µM)”, for which the AUC stood at 0.923 and the IC50 is more than 20 µM.

With “NUGC-4 (stomach, adherent, top dose 20 µM)”, the AUC is 0.985 and the IC50 is more than 20 µM.

On to “NY (osteosarcoma, adherent, top dose 20 µM)”, for which the AUC was determined as 0.976 and the IC50 is more than 20 µM.

As for “OACM5-1 (oesophagus, semi-adherent, top dose 20 µM)”, the AUC amounted to 0.811 and the IC50 was 12.3 µM.

As for “OACp4C (oesophagus, adherent, top dose 20 µM)”, the AUC worked out at 0.303 and the half-maximal inhibitory concentration (IC50) came out at 0.31 µM.

With “OAW-28 (ovary, adherent, top dose 20 µM)”, the AUC came out at 0.799 and the IC50 came out at 12.6 µM.

Take “OAW-42 (ovary, adherent, top dose 20 µM)”: the AUC turned out to be 0.666 and the IC50 was determined as 3.79 µM.

As to “OC-314 (ovary, adherent, top dose 20 µM)”, the AUC stood at 0.937 and the IC50 was more than 20 µM.

As to “OCI-AML2 (acute myeloid leukaemia, suspension, top dose 20 µM)”, the AUC worked out at 0.061 and the IC50 was less than 0.0781 µM.

Take “OCI-AML3 (acute myeloid leukaemia, suspension, top dose 20 µM)”: the AUC was determined as 0.193 and the IC50 came out at 0.182 µM.

For the cell line “OCI-AML5 (acute myeloid leukaemia, suspension, top dose 20 µM)”, the AUC turned out to be 0.351 and the IC50 stood at 0.503 µM.

As to “OCI-LY-19 (B-cell lymphoma, suspension, top dose 20 µM)”, the AUC was determined as 0.211 and the IC50 is 0.194 µM.

Consider “OCI-M1 (acute myeloid leukaemia, suspension, top dose 20 µM)”, for which the AUC was determined as 0.268 and the IC50 was found to be 0.333 µM.

Regarding “OCUB-M (breast, adherent, top dose 20 µM)”, the AUC was found to be 0.862 and the IC50 was 13.4 µM.

As to “OCUM-1 (stomach, adherent, top dose 20 µM)”, the AUC stood at 0.953 and the IC50 was more than 20 µM.

Regarding “OE19 (oesophagus, adherent, top dose 20 µM)”, the AUC came out at 0.986 and the IC50 is more than 20 µM.

Turning to “OE21 (oesophagus, adherent, top dose 20 µM)”, the AUC was determined as 0.931 and the IC50 is more than 20 µM.

Take “OE33 (oesophagus, adherent, top dose 20 µM)”: the AUC is 0.84 and the IC50 turned out to be 17.8 µM.

Turning to “OMC-1 (cervix, adherent, top dose 20 µM)”, the AUC is 0.896 and the IC50 was more than 20 µM.

For “ONS-76 (medulloblastoma, adherent, top dose 20 µM)”, the AUC was 0.55 and the IC50 is 1.73 µM.

As to “OPM-2 (myeloma, suspension, top dose 20 µM)”, the AUC came to 0.887 and the IC50 came out at 15.2 µM.

Regarding “OS-RC-2 (kidney, adherent, top dose 20 µM)”, the AUC was 0.95 and the IC50 is more than 20 µM.

For the cell line “OSC-19 (head and neck, adherent, top dose 20 µM)”, the AUC turned out to be 0.72 and the IC50 came to 5.41 µM.

As for “OSC-20 (head and neck, adherent, top dose 20 µM)”, the AUC worked out at 0.876 and the IC50 is more than 20 µM.

For the cell line OV-7 (ovary, adherent, top dose 20 µM), the AUC was 0.76 and the IC50 turned out to be 10.8 µM.

As for “OV-17R (ovary, adherent, top dose 20 µM)”, the AUC came to 0.974 and the IC50 was more than 20 µM.

Turning to OV-56 (ovary, adherent, top dose 20 µM), the AUC was determined as 0.989 and the IC50 was more than 20 µM.

For the cell line OV-90 (ovary, adherent, top dose 20 µM), the AUC was determined as 0.466 and the IC50 is 0.987 µM.

For “OVCA420 (ovary, adherent, top dose 20 µM)”, the AUC stood at 0.97 and the IC50 is more than 20 µM.

On to “OVCA433 (ovary, adherent, top dose 20 µM)”, for which the AUC amounted to 0.974 and the IC50 is more than 20 µM.

With “OVCAR-3 (ovary, adherent, top dose 20 µM)”, the AUC stood at 0.974 and the IC50 is more than 20 µM.

Regarding “OVCAR-4 (ovary, adherent, top dose 20 µM)”, the AUC amounted to 0.806 and the IC50 was determined as 17 µM.

For the cell line “OVCAR-5 (ovary, adherent, top dose 20 µM)”, the AUC turned out to be 0.915 and the IC50 was more than 20 µM.

Take “OVCAR-8 (ovary, adherent, top dose 20 µM)”: the AUC turned out to be 0.894 and the IC50 worked out at 19.6 µM.
